Measurements as given in PubChem BioAssay AID493208 (National Center for Advancing Translational Sciences (NCATS), 2011).
Screen size: about 44,000 compounds; about 340 (0.77%) were called active. Inconclusive means that the source gave no clear call. Such entries were picked first, then a sample of the others. Calls follow the shape of the dose curve; as a rule, active = well fitted inhibition curve with a large enough effect; inconclusive = small, poorly fitted or top-dose-only effect; inactive = flat fitted curve, though single readings scatter. Potencies of inconclusive entries are left out as doubtful fits.

Assay: Acumen qHTS Assay for Inhibitors of the mTORC1 Signaling Pathway in MEF (Tsc2-/-, p53-/-) Cells: Sytravon; also: nearly all actives have a fitted effect of over 50% in size
Settings: phospho-rpS6 immunofluorescence/PI, 24 h; series mostly up to 38.3 µM
Summary of the method: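 Readout is phospho-S6 Alexa 488 signal normalized to PI per well, reported as % active cells with thresholds set from rapamycin (7.5 nM) and DMSO controls. Cells: Tsc2-/-, p53-/- MEFs, 24 hrs compound at 37 C; PI cell number serves as viability.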
Potency is read from the fitted curve at half-maximal effect; tags tell the direction and shape of the fitted curve.

| SMILES | Potency |
| --- | --- |
| CCc1ccc(C(=O)c2cn(CC(=O)Nc3ccc4c(c3)OCO4)c3cc(OC)c(OC)cc3c2=O)cc1 | inconclusive [falling, partial curve, poor fit] |
| Cc1ccc(C)c(N2CCN(C(=O)C3CCCN(S(=O)(=O)c4ccc5c(c4)oc(=O)n5C)C3)CC2)c1 (stereo not drawn) | inactive |
| COCCCNC(=O)c1ccc(NC(=O)c2nsc3ccccc23)cc1 | inconclusive [falling, partial curve, poor fit] |
| CCc1nc2ccccc2n1CCCCOc1ccc(C)cc1 | inconclusive [falling, single point] |
| CC(=O)c1ccc(NC(=O)Cn2cc(S(=O)(=O)Cc3cccc(Cl)c3)c3ccccc32)cc1 | inconclusive [falling, partial curve] |
| COc1ccc(CC(=O)N2CCc3cc(OC)c(OC)cc3C2COc2ccc(OC)cc2)cc1 (stereo not drawn) | inconclusive [falling, partial curve, poor fit] |
| O=C(Nc1ccc2nn(-c3ccccc3)nc2c1)c1cc2ccccc2o1 | inconclusive [falling, single point] |
| COc1ccc(CN2CCN(Cc3cc(=O)oc4cc(C)ccc34)CC2)c(OC)c1OC | inconclusive [falling, single point] |
| COc1cc(C2CC(=O)Nc3cc4c(cc32)OCCO4)cc(Br)c1OC (stereo not drawn) | inconclusive [falling, full curve, poor fit] |
| CCOCc1ccccc1Nc1ncnc2onc(-c3ccc(Cl)cc3)c12 | inconclusive [falling, partial curve, poor fit] |
| CCC(Sc1nncn2c1cc1oc(C)cc12)C(=O)Nc1ccc(F)cc1 (stereo not drawn) | inconclusive [falling, single point] |
| CC(C)(C)OC(=O)N1CCC(c2c(C(=O)NCCN3CCC(Cc4ccccc4)CC3)cnn2-c2ccc(F)cc2)CC1 | inconclusive [falling, single point] |
| O=C(COc1ccccc1)NC1CC(=O)N(c2ccc3c(c2)OCCO3)C1 (stereo not drawn) | inactive |
| Cc1ccc(C)c(N2CCN(C(=O)c3noc4c3CCCCC4)CC2)c1 | inconclusive [falling, partial curve, poor fit] |
| CCN(CC)c1cc(C)c2cc(NC(=O)/C=C/c3ccc(C)cc3)ccc2n1 | inactive |
| Cn1c(=O)[nH]c(=O)c2c1nc1n(CCO)c(-c3ccccc3)cn21 | inactive |
| CC(C)C(=O)OC1=CN(Cc2ccccc2)S(=O)(=O)c2ccccc21 | inconclusive [falling, partial curve, poor fit] |
| O=C(CN1C(=O)C2(SCC(=O)N2c2ccccc2)c2ccccc21)NCc1ccccc1Cl (stereo not drawn) | inactive |
| COc1cc(NC(=O)CCS(=O)(=O)c2nc(-c3cccs3)cc(C(F)(F)F)n2)cc(OC)c1OC | inconclusive [falling, partial curve, poor fit] |
| Cc1ccc(S(=O)(=O)NCCc2nnc3ccc(SCc4ccccc4C)nn23)cc1 | inactive |
| COc1ccc(OC)c(NC(=O)CSc2c3c(nc4ccccc24)CCCC3)c1 | inconclusive [falling, single point] |
| Cc1ccc(OC(=O)c2cc(-c3ccc4c(c3)OCCO4)on2)c(C)c1 | inactive |
| Cc1ccc(OCC(=O)NCC2(N3CCN(C)CC3)CCCCC2)cc1C | inconclusive [falling, full curve, poor fit] |

| SMILES | Potency |
| --- | --- |
| Cc1cc(C)c2c(CC(=O)N(Cc3ccc(N(C)C)cc3)Cc3ccco3)coc2c1 | inconclusive [falling, single point] |
| Cn1nnnc1SCCCNCc1cccc(OCc2ccc(Cl)cc2)c1 | active: 18.5 µM |
| COc1ccc(-c2nn(C)c3sc(C(=O)Nc4cccc(F)c4)cc23)cc1OC | inconclusive [falling, single point] |
| Cc1ccc(-n2c(SCC(=O)Nc3cccc(Cl)c3)nc3n[nH]c(C)c3c2=N)cc1 | inconclusive [falling, single point] |
| CC(=O)N1CCCc2ccc(NS(=O)(=O)c3ccc(F)cc3F)cc21 | inconclusive [activator, single point] |
| CC(C)c1ccc(Nc2c(-c3ccccc3O)nc3cnccn23)cc1 | inactive |
| CCCCOC(=O)c1ccc(NC(=O)Cc2coc3ccc(C(C)C)cc23)cc1 | inconclusive [falling, single point] |
| Cc1cccc(C(=O)Nc2nc(-c3ccc(Br)cc3)ns2)c1 | inactive |
| O=C(CSc1n[nH]c(-c2ccccc2Cl)n1)N1CCN(c2ccccc2F)CC1 | inconclusive [falling, single point] |
| Cc1cc(NC(=O)Nc2csc3c2CCCC3)ccc1Br | inactive |
| COc1ccc(NS(=O)(=O)c2ccc(NS(=O)(=O)c3ccc4c(c3)OCCO4)cc2)cc1 | inconclusive [falling, single point] |
| Cc1c(C(=O)NCc2ccccc2Cl)sc2nc3n(c(=O)c12)CCC3 | inconclusive [falling, single point] |
| COc1ccc(NC(=O)c2ccco2)cc1NC(=O)COc1ccc(C)cc1C | inconclusive [falling, single point] |
| CCCc1ccc(NC(=O)C2CCN(c3cnccn3)CC2)cc1 | inconclusive [falling, partial curve, poor fit] |
| Cc1cc(Cl)ccc1NC(=O)CN1C(=O)C(=O)c2ccccc21 | active: 10.4 µM |
| CCOC(=O)C(Cc1c[nH]c2ccccc12)NC(=O)COc1ccc(Cl)cc1 (stereo not drawn) | inconclusive [falling, single point] |
| COc1ccc(-n2c(=O)c3ccc(C(=O)NCc4ccc(C)cc4)cc3n(CC(=O)Nc3ccc(C)cc3)c2=O)cc1 | inconclusive [falling, partial curve] |
| O=c1[nH]c(SCc2ccc(Br)cc2)nc2c1CCCC2 | inconclusive [falling, partial curve, poor fit] |
| O=C(Cn1c(=O)n(Cc2ccc3c(c2)OCO3)c(=O)c2ccc(C(=O)NC3CCCCC3)cc21)Nc1ccccc1F | inconclusive [falling, partial curve, poor fit] |
| Cc1ccc(Cl)cc1-n1ncc2c(NC3CCCCCC3)ncnc21 | inconclusive [falling, partial curve, poor fit] |
| COc1ccc(C(F)(F)F)cc1NC(=O)c1sc2nc(-c3cccs3)ccc2c1N | active: 18.5 µM |
| CC(=O)c1ccc(N2CCN(c3ncnc4c3c(-c3ccccc3)cn4-c3cccc(C)c3)CC2)cc1 | inconclusive [falling, single point] |
| O=C(NC1CCCCC1)c1ccc(Cn2c(SCc3ccccc3F)nc3cccnc32)cc1 | inactive |

| SMILES | Potency |
| --- | --- |
| COc1ccc(-c2cc(C(F)(F)F)nc(S(=O)(=O)CCCC(=O)Nc3cccc(O)c3)n2)cc1OC | inconclusive [falling, single point] |
| COC(=O)c1ccc(Nc2nnc(-c3ccc(C)c(S(=O)(=O)N4CCN(C)CC4)c3)c3ccccc23)cc1 | active: 20.7 µM |
| COC(=O)c1cccc(-n2c(CCC(=O)O)ccc2-c2ccc(OC)cc2)c1 | inconclusive [falling, full curve, poor fit] |
| O=C(COc1ccc2oc3c(c2c1)CCCC3)Nc1ccc(Br)cc1 | inconclusive [falling, partial curve, poor fit] |
| O=C(CSc1nccn1-c1ccc(F)cc1)Nc1ccc(OC(F)(F)F)cc1 | inconclusive [falling, partial curve, poor fit] |
| O=S(=O)(c1ccccc1)c1nc(-c2cccs2)oc1SCc1ccccc1F | inconclusive [falling, single point] |
| Cc1ccccc1NC(=O)CCn1cnc2onc(-c3ccc(F)cc3)c2c1=O | inconclusive [falling, single point] |
| CCOC(=O)c1c(C)oc2nc(C)nc(NCc3ccc(Cl)cc3)c12 | inconclusive [falling, single point] |
| Cc1cccc(NC(=O)c2nc(S(C)(=O)=O)ncc2Cl)c1 | active: 3.29 µM |
| COc1ccc(C2c3c(-c4c(C)cc(C)cc4O)n[nH]c3C(=O)N2Cc2ccco2)cc1 (stereo not drawn) | inconclusive [falling, single point] |
| O=C(NCCCN1CCN(c2ccc(F)cc2)CC1)Nc1ccc(Cl)cc1 | inconclusive [falling, single point] |
| CCOC(=O)c1cccc(NC(=O)c2ccc3c(Cl)c4c(nc3c2)CCC4)c1 | inconclusive [falling, full curve, poor fit] |
| Cc1ccc(CN2C(=O)C(O)(c3c[nH]c4ccccc34)c3cc(Cl)ccc32)cc1 (stereo not drawn) | inconclusive [falling, single point] |
| Cc1ccc(C)c(NC(=O)Cn2c(=O)n(Cc3ccco3)c(=O)c3oc4ccccc4c32)c1 | inactive |
| CN(Cc1ccccc1)C(=O)C1CCN(S(=O)(=O)Cc2ccccc2)CC1 | inconclusive [falling, partial curve, poor fit] |
| Cc1ccc(-n2c(=O)c3ccc(C(=O)NCc4ccccc4Cl)cc3n(Cc3ccccc3F)c2=O)cc1 | inactive |
| CCCC1=Nc2cc(C(=O)NC(C)c3ccccc3)ccc2Sc2ccc(C)cc21 (stereo not drawn) | inconclusive [falling, single point] |
| Fc1ccc(CN2CCc3nc(Nc4ccccc4)ncc3C2)cc1F | inconclusive [activator, single point] |
| O=C(Cn1cc(SCc2cccc(Cl)c2)c2ccccc21)N1CCCCCC1 | inconclusive [falling, partial curve, poor fit] |
| COc1ccccc1CN(Cc1ccco1)c1cnc(S(C)(=O)=O)nc1C(=O)Nc1cc(C)ccc1C | inconclusive [falling, partial curve, poor fit] |
| CCCc1ccc(C2Sc3ccccc3NC3=C2C(=O)c2ccccc23)cc1 (stereo not drawn) | inconclusive [falling, single point] |
| CCC(=O)NCc1cc(-c2nn(C)c(=O)c3ccccc23)ccc1OC | inactive |
